# Experimental data reported in PubChem BioAssay AID886 (National Center for Advancing Translational Sciences (NCATS), 2007).
# About 2,500 (3.4%) of roughly 73,000 compounds were called active. Inconclusive means that the source gave no clear call. Such entries were picked first, then a sample of the others. Calls come from the whole dose curve; as a rule, active = well fitted inhibition curve with a large enough effect; inconclusive = small, poorly fitted or top-dose-only effect; inactive = no such curve, though single readings can be large or run the other way. Potencies of inconclusive entries are doubtful fits and often do not repeat.
# Target: 3-hydroxyacyl-CoA dehydrogenase type-2 (Homo sapiens) (UniProt Q99714)
# Assay: qHTS Assay for Inhibitors of HADH2 (Hydroxyacyl-Coenzyme A Dehydrogenase, Type II); note: nearly all actives have a fitted effect of over 60% in size
# Conditions: recombinant HADH2, NADH fluorescence, beta-hydroxybutyryl-CoA; activity change, negative = inhibition: at 57.1 µM (top of the series)
# Procedure, shortened: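 20 nM HADH2 + cpd, 15 min RT; add 1 mM NAD+/90 uM beta-hydroxybutyryl-CoA; kinetic fluorescence 360/450 nm, 4 min. Tris-HCl pH 9.0, 0.01% Tween-20.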
# % is set by controls: 0 for no effect and ±100 for the full control effect; potency is the fitted concentration of half-maximal effect; tags give direction and shape of the fitted curve.
# Chain of UniProt Q99714 (Q99714 whole entry, looked up): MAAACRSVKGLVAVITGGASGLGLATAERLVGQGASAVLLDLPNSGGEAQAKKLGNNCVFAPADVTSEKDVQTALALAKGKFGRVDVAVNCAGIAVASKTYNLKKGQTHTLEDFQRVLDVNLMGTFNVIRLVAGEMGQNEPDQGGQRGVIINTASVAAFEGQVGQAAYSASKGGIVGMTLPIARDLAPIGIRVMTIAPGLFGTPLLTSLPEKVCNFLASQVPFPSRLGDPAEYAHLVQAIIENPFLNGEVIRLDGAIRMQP
# Chain of UniProt Q99714 (Q99714 whole entry, looked up): as above
Compound,Potency,"activity change, negative = inhibition"
N[C@H](CCC(=O)NCS(=O)(=O)O)C(=O)O,"inconclusive: 39.8 µM [inhibitor, single point]",–
Cc1cnc(CNc2ncncc2-c2ccccc2C#N)cn1,"inconclusive: 10 µM [inhibitor, partial curve]",–
COC(=O)[C@@H](NC(=O)N1CCN(c2cccc(C(F)(F)F)c2)CC1)C(C)C,"inconclusive: 1 µM [inhibitor, single point]",–
O=C(c1cc2nc(C3CC3)cc(C(F)(F)F)n2n1)N1CCCC1,–,inactive: -2.72%
CCOC(=O)C1(CCSC)NC(c2ccco2)C2C(=O)N(CC)C(=O)C21 (configuration not stated),"inconclusive: 39.8 µM [inhibitor, single point]",–
O=C(CSc1ccc(Cl)cc1)Nn1cnnc1,"inconclusive: 10 µM [inhibitor, partial curve]",–
COCCn1c(C)cc(C(=O)CSc2ncnc3sc4c(c23)CCC4)c1C,"inconclusive: 20 µM [inhibitor, single point]",–
O=C(CCCN1CC=C(n2c(=O)[nH]c3ccccc32)CC1)c1ccc(F)cc1,–,inactive: -0.312% [at 25.6 µM]
N#CC1=C(N)SC2(CCCCC2)SC1c1ccccc1 (configuration not stated),active: 12.6 µM,–
CN(C)C(=O)c1ccc(-c2nc(NCc3cccnc3)c3ccccc3n2)cc1,"inconclusive: 31.6 µM [inhibitor, single point]",–
c1ccc(COc2nsnc2N2CCOCC2)cc1,"inconclusive: 5.01 µM [inhibitor, partial curve]",–
O=c1oc2cc(O)ccc2c2c1CCCC2,active: 3.16 µM,–
COc1cccc(C(=O)N2CCN(Cc3ccc4c(c3)OCO4)CC2)c1OC,"inconclusive: 31.6 µM [inhibitor, single point]",–
Cc1n[nH]c(=O)nc1NCCN(C)C,"inconclusive: 15.8 µM [inhibitor, partial curve]",–
COc1ccc(C2CC(c3ccccc3)Nc3ncnn32)cc1 (configuration not stated),"inconclusive: 25.1 µM [inhibitor, partial curve]",–
CCCc1nnc(NC(=O)Cn2c(=O)sc3ccccc32)s1,"inconclusive: 20 µM [inhibitor, partial curve]",–
O=C(O)c1cc(S(=O)(=O)N2CCCC2)ccc1Br,"inconclusive: 1 µM [inhibitor, single point]",–
Cc1ccc(-c2c3c([nH]c(=S)c2C#N)CCCC3)o1,active: 12.6 µM,–
O=C(CSc1nnc(CNC(=O)c2cccs2)o1)c1ccccc1,"inconclusive: 1.26 µM [inhibitor, full curve]",–
Cc1c(C(=O)Nc2cccc3cccnc23)oc2ccccc12,"inconclusive: 31.6 µM [inhibitor, single point]",–
O=C(O)c1ccccc1NCc1ccncc1,"inconclusive: 31.6 µM [inhibitor, single point]",–
CCCCc1c(O)c2ccccc2[nH]c1=O,"inconclusive: 31.6 µM [inhibitor, single point]",–
COCC(=O)N1CCC2(CCCN(c3ccc(-c4ccccc4)cc3)C2)CC1,–,inactive: 5.21%
COc1ccccc1-c1nc(-c2ccc(Br)cc2)no1,–,inactive: 1.06%
COc1ccccc1-c1cc(C(F)(F)F)nc(S(=O)(=O)CCCC(=O)N2CCCCC2C)n1 (configuration not stated),"inconclusive: 39.8 µM [inhibitor, single point]",–
CC1CCN(c2nnc(N3CCC(C)CC3)c3ccccc23)CC1,–,inactive: 13.1%

Compound,Potency,"activity change, negative = inhibition"
O=C(NC1=NCCS1)c1ccc(-c2ccc(Cl)cc2)o1,active: 31.6 µM,–
Cc1cccc2c1nc(-c1ccccc1)n1nnnc21,"inconclusive: 31.6 µM [inhibitor, single point]",–
CC1=C/C(=C\c2ccc3c(c2)OCO3)C(=O)S1,"inconclusive: 31.6 µM [inhibitor, single point]",–
CC(=O)N1CCN(c2ccc(Oc3ncnc4sccc34)cc2)CC1,"inconclusive: 0.251 µM [inhibitor, full curve, poor fit]",–
Cc1cccc(C)c1NC(=O)Cn1nnc(-c2ccc(N3CCOCC3)cc2)n1,"inconclusive: 39.8 µM [inhibitor, single point]",–
CCOc1nc2ccccc2nc1NS(=O)(=O)c1ccccc1,"inconclusive: 3.98 µM [inhibitor, single point]",–
COc1cc(C(=O)NCCC(=O)NCCCN2CCCCC2C)cc(OC)c1OC (configuration not stated),"inconclusive: 5.01 µM [inhibitor, partial curve, poor fit]",–
N#Cc1c(NC(=O)c2ccncc2)sc2c1CCC2,active: 7.94 µM,–
OC(c1cccs1)c1nccc2ccccc12 (configuration not stated),"inconclusive: 12.6 µM [inhibitor, partial curve]",–
O=c1[nH]c2ccccc2c2ccccc12,"inconclusive: 7.94 µM [inhibitor, full curve, poor fit]",–
Brc1ccc(-c2nc(-c3ccccc3)no2)o1,–,inactive: 20.5%
COc1ccccc1CNS(=O)(=O)c1c(C)noc1C,–,inactive: 12.1%
COC(=O)c1c(N)c2ccccc2[nH]c1=O,"inconclusive: 25.1 µM [inhibitor, single point]",–
O=C(CCn1c(=O)oc2ccccc21)Nc1ccccc1,active: 10 µM,–
CCOC(=O)c1c(-c2ccccc2)[nH]c2ccc(O)cc12,active: 31.6 µM,–
CCCCNc1nc(C)nc2c1nc(-c1ccccc1)n2CCCCN(CC)CC,"inconclusive: 25.1 µM [inhibitor, single point]",–
Brc1ccc(CSc2ncn[nH]2)cc1,"inconclusive: 12.6 µM [inhibitor, partial curve]",–
O=C(COC(=O)Cc1cccc(C(F)(F)F)c1)NCC1CCCO1 (configuration not stated),–,inactive: 8.27%
Cn1c(=O)c2cc(S(=O)(=O)N3CCN(c4cccc(C(F)(F)F)c4)CC3)ccc2n(C)c1=O,"inconclusive: 39.8 µM [inhibitor, single point]",–
COC(=O)c1ccc(C(=O)OC)c(NC2=NS(=O)(=O)c3ccccc32)c1,"inconclusive: 31.6 µM [inhibitor, single point]",–
CCCCC(=O)Nc1cccc(-c2nc3ncccc3o2)c1,"inconclusive: 39.8 µM [inhibitor, single point]",–
CC(=O)Nc1cc(OC(C)=O)c2nonc2c1OC(C)=O,active: 15.8 µM,–
CCOc1nc(-c2ccccc2)ccc1-c1noc(-c2ccco2)n1,active: 25.1 µM,–
CC(=O)NCCNc1nc(-c2ccccc2CN(C)C)nc2ccccc12,–,inactive: 12%
O=C(Oc1ccc(N(Cc2cccs2)C2=NS(=O)(=O)c3ccccc32)cc1)c1ccco1,"inconclusive: 31.6 µM [inhibitor, single point]",–
O=C1Nc2ccc(S(=O)(=O)N3CCOCC3)c3cccc1c23,active: 31.6 µM,–

Compound,Potency,"activity change, negative = inhibition"
CCCCOC(=O)C1=C(C)Nc2ncnn2C1c1cccc(OC)c1 (configuration not stated),"inconclusive: 25.1 µM [inhibitor, single point]",–
Cc1ccc(/C=N/c2sc3c(c2C#N)CCCCC3)o1,active: 5.01 µM,–
CCOc1ccc2cc(C#N)c(SCC(=O)N3CCOCC3)nc2c1,"inconclusive: 39.8 µM [inhibitor, single point]",–
CC(=O)N1CCN(c2ccc(NCc3ccc(F)cc3)cc2)CC1,–,inactive: -6.51%
c1ccc(Cn2nnc3c(N4CCc5ccccc54)ncnc32)cc1,active: 25.1 µM,–
CCOC(=O)N1CCN(C(=O)COc2ccc3c(c2)C(=O)CC2(CCN(C(C)=O)CC2)O3)CC1,active: 31.6 µM,–
O=c1c(-c2ccccc2)c(O)nc2ccccn12,–,inactive: -5.58%
COc1cc2c(cc1O)[C@@H](c1cc(O)c(O)c(OC)c1)[C@@](O)(C(=O)O)[C@@H](CO)[C@@H]2O,active: 0.501 µM,–
CC(c1ccccc1)n1c(-c2ccncc2)n[nH]c1=S (configuration not stated),"inconclusive: 25.1 µM [inhibitor, partial curve]",–
COCCNc1ncnc2ccc(-c3ccccc3C(F)(F)F)cc12,"inconclusive: 12.6 µM [inhibitor, partial curve]",–
Nc1nc(-c2c[nH]c3ccccc23)cs1,"inconclusive: 6.31 µM [inhibitor, full curve]",–
c1ccc2[nH]c(SCCN3CCOCC3)nc2c1,–,inactive: -2.22%
CC(=O)OC1CC2(C)C(=O)CCC2C2CCc3cc(O)ccc3C12 (configuration not stated),active: 12.6 µM,–
Cc1oc2cc(O)ccc2c(=O)c1Oc1ccccc1,active: 25.1 µM,–
C=CCn1c(SCc2cc(=O)n3ccsc3n2)nc2sc(C)c(C)c2c1=O,"inconclusive: 39.8 µM [inhibitor, single point]",–
O=C(O)C1C2C=CC(O2)C1C(=O)Nc1ccc(S(=O)(=O)Nc2ccccc2)cc1 (configuration not stated),"inconclusive: 12.6 µM [inhibitor, partial curve]",–
COc1ccc2[nH]cc(CCNc3ncncc3-c3ccccc3OC)c2c1,"inconclusive: 6.31 µM [inhibitor, single point]",–
O=C1CC(C(=O)Nc2ccc(O)c(C(=O)O)c2)C(c2ccccc2)O1 (configuration not stated),active: 25.1 µM,–
CCOC(=O)c1cnn2c(C)cc(-c3ccc(F)cc3)nc12,"inconclusive: 39.8 µM [inhibitor, single point]",–
CCOC(=O)c1c(COc2ccccc2)oc2ccc(O)cc12,"inconclusive: 5.01 µM [inhibitor, full curve, poor fit]",–
CCCC[C@@H]1C[C@H]1C(NC(=O)c1cccs1)c1ccc(Cl)cc1 (some centres not stated),–,inactive: 3.3%
CN[C@@H]1NC(=O)c2ccccc2N1Cc1ccc(F)cc1,–,inactive: 4.1% [at 11.4 µM]
CCCc1[nH]nc2c1C(c1ccccc1OCC)C(C#N)=C(N)O2 (configuration not stated),"inconclusive: 20 µM [inhibitor, partial curve]",–
Cc1nc2cnc(OCc3ccccc3)nc2n(C)c1=O,–,inactive: -7.11%
CSc1nsc(SC)c1NC(=O)OC1CCCCC1,"inconclusive: 25.1 µM [inhibitor, single point]",–
